In patent publication US11618753B2 (priority 2018, dated 2023):

What follows are compounds tested on MLKL phosphorylation, HT29-L23 human colorectal adenocarcinoma cells (assay: cells). Conditions: read-out: pMLKL HCS Cell Assay (IC50, uM).

SMILES | IC50
C[C@H]1CN(C(=O)C2CCC(F)(F)C2)C[C@H]1NC(=O)c1cc(-c2cc(C(F)(F)F)c3c(N)ncnn23)cnc1C(F)(F)F (stereo partly drawn) [Example 23, 5-[4-amino-5-(trifluoromethyl)pyrrolo[2,1-f][1,2,4]triazin-7-yl]-N-[(3S,4S)-1-(3,3-difluorocyclopentanecarbonyl)-4-methylpyrrolidin-3-yl]-2-(trifluoromethyl)pyridine-3-carboxamide] | 0.06 µM
COc1ncc(-c2cc(C(F)(F)F)c3c(N)ncnn23)cc1C(=O)NC1CN(C(C)CC(O)(c2ccccc2)C(F)(F)F)C[C@@H]1F (mixture of isomers) [Example 1383, 5-[4-amino-5-(trifluoromethyl)-pyrrolo[2,1-f][1,2,4]triazin-7-yl]-N-[(3R,4S)-4-fluoro-1-(5,5,5-trifluoro-4-hydroxy-4-phenylpentan-2-yl)pyrrolidin-3-yl]-2-methoxypyridine-3-carboxamide] | 0.364 µM
Cc1ncc(-c2cc(C(F)(F)F)c3c(N)ncnn23)cc1C(=O)N1CCC[C@H](Cc2ccc(F)cc2)C1 [Example 174, 7-{5-[(3R)-3-[(4-fluorophenyl)methyl]piperidine-1-carbonyl]-6-methylpyridin-3-yl}-5-(trifluoromethyl)pyrrolo[2,1-f][1,2,4]triazin-4-amine] | 0.0066 µM
Nc1ncnn2c(-c3ccc(F)c(C(=O)N[C@@H]4CN(C(=O)C5CC(F)C5)C[C@@H]4F)c3F)cc(C(F)(F)F)c12 (stereo partly drawn) [Example 723, 3-[4-amino-5-(trifluoromethyl)pyrrolo[2,1-f][1,2,4]triazin-7-yl]-2,6-difluoro-N-[(3R,4S)-4-fluoro-1-(3-fluorocyclobutanecarbonyl)pyrrolidin-3-yl]benzamide] | 0.252 µM
COc1ncc(-c2cc(Cn3cncc3-c3ccccc3)c3c(N)ncnn23)cc1C(=O)N[C@@H]1CN(C(=O)C2CC(F)(F)C2)C[C@@H]1F [Example 1713, 5-(4-amino-5-((5-phenyl-1H-imidazol-1-yl)methyl)pyrrolo[2,1-f][1,2,4]triazin-7-yl)-N-((3R,4S)-1-(3,3-difluorocyclobutane-1-carbonyl)-4-fluoropyrrolidin-3-yl)-2-methoxynicotinamide] | 0.143 µM
COc1ncc(-c2cc(CN3CC4(COC4)C3)c3c(N)ncnn23)cc1C(=O)N[C@@H]1CN(CC(O)C(F)(F)F)C[C@@H]1F (some centres unmarked) [Example 480] | 0.323 µM
Nc1ncnn2c(-c3cc(C(=O)N[C@@H]4CN(C(=O)CC(C(F)(F)F)C(F)(F)F)C[C@@H]4F)c(Cl)cc3F)cc(C(F)(F)F)c12 [Example 882, 5-[4-amino-5-(trifluoromethyl)pyrrolo[2,1-f][1,2,4]triazin-7-yl]-2-chloro-4-fluoro-N-[(3R,4S)-4-fluoro-1-[4,4,4-trifluoro-3-(trifluoromethyl)butanoyl]pyrrolidin-3-yl]benzamide] | 0.005 µM
CC(C)(O)C(=O)N1C[C@H](F)[C@H](NC(=O)c2cc(-c3cc(C(F)(F)F)c4c(N)ncnn34)cc(F)c2CF)C1 [Example 623, 5-[4-amino-5-(trifluoromethyl)pyrrolo[2,1-f][1,2,4]triazin-7-yl]-3-fluoro-N-[(3R,4S)-4-fluoro-1-(2-hydroxy-2-methylpropanoyl)pyrrolidin-3-yl]-2(fluoromethyl)benzamide] | 0.01 µM
Cc1cc(F)c(-c2cc(C(F)(F)F)c3c(N)ncnn23)cc1C(=O)N[C@@H]1CN(C(=O)c2cc(Cl)ccn2)C[C@@H]1F [Example 849, 5-[4-amino-5-(trifluoromethyl)pyrrolo[2,1-f][1,2,4]triazin-7-yl]-N-[(3R,4S)-1-(4-chloropyridine-2-carbonyl)-4-fluoropyrrolidin-3-yl]-4-fluoro-2-methylbenzamide] | 0.014 µM
Nc1ncnn2c(-c3cc(C(=O)N[C@@H]4CN(C(=O)C5CCC(F)(F)C5)C[C@@H]4F)c(Cl)cc3F)cc(C(F)(F)F)c12 (single isomer, unassigned) [Example 886] | 0.0026 µM
COc1ncc(-c2cc(C(F)(F)F)c3c(N)ncnn23)cc1C(=O)N[C@@H]1CN(C(=O)NC(C)C)C[C@@H]1F [Example 1840, 5-(4-amino-5-(trifluoromethyl)pyrrolo[2,1-f][1,2,4]triazin-7-yl)-N-((3R,4S)-4-fluoro-1-(isopropylcarbamoyl)pyrrolidin-3-yl)-2-methoxynicotinamide] | 0.296 µM
COc1ncc(-c2cc(C(F)(F)F)c3c(N)ncnn23)cc1C(=O)NC1CN(Cc2cccc(C(F)(F)F)c2)CC1F (racemic) [Example 228, 5-[4-amino-5-(trifluoromethyl)pyrrolo[2,1-f][1,2,4]triazin-7-yl]-N-(4-fluoro-1-{[3-(trifluoromethyl)phenyl]methyl}pyrrolidin-3-yl)-2-methoxypyridine-3-carboxamide] | 0.174 µM
COc1ncc(-c2cc(C(F)(F)F)c3c(NC(C)=O)ncnn23)cc1C(=O)N[C@@H]1CN(C(=O)[C@@](C)(O)C(F)(F)F)C[C@@H]1F [Example 1341, 5-[4-acetamido-5-(trifluoromethyl)pyrrolo[2,1-f][1,2,4]triazin-7-yl]-N-[(3R,4S)-4-fluoro-1-[(2R)-3,3,3-trifluoro-2-hydroxy-2-methylpropanoyl]pyrrolidin-3-yl]-2-methoxypyridine-3-carboxamide] | 0.0041 µM
COc1ncc(-c2cc(C(F)(F)F)c3c(N)ncnn23)cc1C(=O)NCCC(=O)c1ccc(Cl)cc1 [Example 148, 5-[4-amino-5-(trifluoromethyl)pyrrolo[2,1-f][1,2,4]triazin-7-yl]-N-[3-(4-chlorophenyl)-3-oxopropyl]-2-methoxypyridine-3-carboxamide] | 0.024 µM
[2H]C([2H])([2H])Oc1ncc(-c2cc(CN3CC(F)(F)C3)c3c(N)ncnn23)cc1C(=O)N[C@@H]1CN(C(=O)CC(F)(F)F)C[C@@H]1F [Example 1286, 5-{4-amino-5-[(3,3-difluoroazetidin-1-yl)methyl]pyrrolo[2,1-f][1,2,4]triazin-7-yl}-N-[(3R,4S)-4-fluoro-1-(3,3,3-trifluoropropanoyl)pyrrolidin-3-yl]-2-(methoxy-d3)nicotinamide] | 0.0025 µM
COCc1cc(-c2cnc(OC)c(C(=O)NCC[C@H](O)c3ccc(Cl)cc3)c2)n2ncnc(N)c12 [Example 50, (S)-5-(4-amino-5-(methoxymethyl)pyrrolo[2,1-f][1,2,4]triazin-7-yl)-N-(3-(4-chlorophenyl)-3-hydroxypropyl)-2-methoxynicotinamide] | 0.0036 µM
COc1ncc(-c2cc(C(F)(F)F)c3c(N)ncnn23)cc1C(=O)NC1CN(C(=O)CC(O)(C(F)(F)F)C(F)(F)F)CCC1F (centres unmarked) [Example 1661, 5-[4-amino-5-(trifluoromethyl)pyrrolo[2,1-f][1,2,4]triazin-7-yl]-N-{4-fluoro-1-[4,4,4-trifluoro-3-hydroxy-3-(trifluoromethyl)butanoyl]piperidin-3-yl}-2-methoxypyridine-3-carboxamide] | 0.031 µM
COc1ncc(-c2ccc3c(N)ncnn23)cc1C(=O)N[C@@H]1CN(C(=O)C2CC(F)(F)C2)C[C@@H]1F [Example 154, 5-{4-aminopyrrolo[2,1-f][1,2,4]triazin-7-yl}-N-[(3R,4S)-1-(3,3-difluorocyclobutanecarbonyl)-4-fluoropyrrolidin-3-yl]-2-methoxypyridine-3-carboxamide] | 0.066 µM
COc1ncc(-c2cc(C(F)(F)F)c3c(N)ncnn23)cc1C(=O)N[C@@H]1CN(CC(O)C(F)(F)F)C[C@@H]1F (single isomer, unassigned) [Example 44-1] | 0.0093 µM
Cc1ccc(-c2cc(C(F)(F)F)c3c(N)ncnn23)c(F)c1C(=O)N[C@@H]1CN(C(=O)c2ccccc2F)C[C@@H]1F [Example 756, 3-[4-amino-5-(trifluoromethyl)pyrrolo[2,1-f][1,2,4]triazin-7-yl]-2-fluoro-N-[(3R,4S)-4-fluoro-1-(2-fluorobenzoyl)pyrrolidin-3-yl]-6-methylbenzamide] | 0.0039 µM
Cc1cc(F)c(-c2cc(C(F)(F)F)c3c(N)ncnn23)cc1C(=O)N[C@@H]1CN(C(=O)c2cc(F)cc(F)c2)C[C@@H]1F [Example 816, 5-[4-amino-5-(trifluoromethyl)pyrrolo[2,1-f][1,2,4]triazin-7-yl]-N-[(3R,4S)-1-(3,5-difluorobenzoyl)-4-fluoropyrrolidin-3-yl]-4-fluoro-2-methylbenzamide] | 0.028 µM
COc1ncc(-c2cc(C(F)(F)F)c3c(N)ncnn23)cc1C(=O)NCC[C@H](OC)c1ccc(Cl)cc1 [Example 29, 5-[4-amino-5-(trifluoromethyl)pyrrolo[2,1-f][1,2,4]triazin-7-yl]-N-[(3S)-3-(4-chlorophenyl)-3-methoxypropyl]-2-methoxypyridine-3-carboxamide] | 0.106 µM
COc1cc(F)c(-c2cc(C(F)(F)F)c3c(N)ncnn23)cc1C(=O)N[C@@H]1CN(C(=O)CC(F)(F)F)C[C@@H]1F [Example 874, 5-[4-amino-5-(trifluoromethyl)pyrrolo[2,1-f][1,2,4]triazin-7-yl]-4-fluoro-N-[(3R,4S)-4-fluoro-1-(3,3,3-trifluoropropanoyl)pyrrolidin-3-yl]-2-methoxybenzamide] | 0.025 µM
COc1ncc(-c2cc(CN3CCc4ccccc4C3)c3c(N)ncnn23)cc1C(=O)N[C@@H]1CN(C(=O)[C@@](C)(O)C(F)(F)F)C[C@@H]1F [Example 1600, 5-{4-amino-5-[(1,2,3,4-tetrahydroisoquinolin-2-yl)methyl]pyrrolo[2,1-f][1,2,4]triazin-7-yl}-N-[(3R,4S)-4-fluoro-1-[(2R)-3,3,3-trifluoro-2-hydroxy-2-methylpropanoyl]pyrrolidin-3-yl]-2-methoxypyridine-3-carboxamide] | 0.0016 µM
CONCc1cc(-c2cnc(OC)c(C(=O)N[C@@H]3CN(C(=O)C4CC(F)(F)C4)C[C@@H]3F)c2)n2ncnc(N)c12 [Example 1714, 5-(4-amino-5-((methoxyamino)methyl)pyrrolo[2,1-f][1,2,4]triazin-7-yl)-N-((3R,4S)-1-(3,3-difluorocyclobutane-1-carbonyl)-4-fluoropyrrolidin-3-yl)-2-methoxynicotinamide] | 0.0078 µM
CC(C)CC(=O)N1C[C@H](F)[C@H](NC(=O)c2cc(-c3cc(C(F)(F)F)c4c(N)ncnn34)ccc2C(F)(F)F)C1 [Example 902, 5-[4-amino-5-(trifluoromethyl)pyrrolo[2,1-f][1,2,4]triazin-7-yl]-N-[(3R,4S)-4-fluoro-1-(3-methylbutanoyl)pyrrolidin-3-yl]-2-(trifluoromethyl)benzamide] | 0.018 µM
